Reference: the supplement of paper PMC11417369
This is one part of the list.

What follows are sequences tested on PfAP2-HC AP2 domain (GST-tagged) (assay: gcPBM binding intensity (ln(normalized median fluorescence intensity)); higher = stronger DNA binding).
Method in brief: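 An Agilent 4 × 180k array of primer-extended double-stranded 36-bp intergenic genomic probes, with negative controls, was incubated for 1 h with GST-tagged P. falciparum DNA-binding domains expressed in E. coli. Alexa488 anti-GST antibody detected bound protein, scanned at 488 nm. Binding intensity is the highest Masliner-normalised natural-log median intensity across replicate spots of either probe orientation.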
For “ATATTTTATTATATAGGTACACATAATTTCATGTAA [XGTACX_site415]”, the “gcPBM binding intensity (ln)” value was 9.5.
For “ATCTTAATTTTTGAAGGTACACACTAATATATTAAA [XGTACX_site2292]”, the “gcPBM binding intensity (ln)” value was 9.58.
With “AATAAATAAAAATGCACACAGTTAACATGTTGAATT [CACACA_site4795]” the “gcPBM binding intensity (ln)” value was 10.2.
In the case of “TTTTGTACATCTTTTGCACACGTAATGTTATTATAA [CACACA_site1259]”, the “gcPBM binding intensity (ln)” value is reported as 9.94.
For “TTTAAAGTTTTATACACACACCAAAGTTATTCTAAT [CACACA_site6432]”, the “gcPBM binding intensity (ln)” value was 9.9.
“CAATGAAAAATAATGAGTACATAGTTAATAAAGATA [XGTACX_site72]” was tested, and the “gcPBM binding intensity (ln)” value was 9.71.
For “ATAATTAAAATTAAATGTACTTTTTTATATATTTTT [XGTACX_site2209]”, the “gcPBM binding intensity (ln)” value was 9.61.
With “AATTTCTTTTTCGATATACACACTGTATGTGTCTAA [CACACA_site3975]” the “gcPBM binding intensity (ln)” value was 10.2.
For “AATGATACACATATATGTACATATATATATATATAT [XGTACX_site5391]”, the “gcPBM binding intensity (ln)” value was 9.9.
For “TGCAATATATCAAAGTGTACATGCAATAAAAAAAAA [XGTACX_site652]”, the “gcPBM binding intensity (ln)” value was 9.65.
“ATATGGATTATACATACATGCATACATACATACATA [TGCATGCA_site475]” was tested, and the “gcPBM binding intensity (ln)” value was 9.64.
“TATATACATATATGCACACAAAAAAATATATATTTT [CACACA_site1729]” was tested, and the “gcPBM binding intensity (ln)” value was 9.9.
With “AAATGTAGAAAAAGTTGTACACTGTTTCAAAAATAA [XGTACX_site1063]” the “gcPBM binding intensity (ln)” value was 9.64.
With “AAAATTTAATATAATGCACACATAAAACAAAAACAA [CACACA_site8071]” the “gcPBM binding intensity (ln)” value was 10.1.
“TTATAATATATATAAAAGAAAAAAAATTATAATATA [CACACA_negctrl_site90]” was tested, and the “gcPBM binding intensity (ln)” value was 9.36.
For “TTATTTTTCTTTATTGGTACACACGAAAAAAAAATT [XGTACX_site6482]”, the “gcPBM binding intensity (ln)” value was 9.52.
In the case of “GCCCACACGAACCATGCATGCCACGATATAAACCAC [TGCATGCA_site322]”, the “gcPBM binding intensity (ln)” value is reported as 9.9.
For “TTTTTTACAGAAAAATATTAAAATTATAAATGTGAA [GTGCAC_negctrl_site451]”, the “gcPBM binding intensity (ln)” value was 9.28.
TAATATATATATATGGTGCATTTAATTTATATATAA was tested, and the “gcPBM binding intensity (ln)” value was 9.49.
For “TATGAAATTTTAATTACACACAGGAAAATAAAATGT [CACACA_site8430]”, the “gcPBM binding intensity (ln)” value was 9.93.
With “AAGAAGTGGAAAATATACTCCACATATATATATGTG [CACACA_negctrl_site304]” the “gcPBM binding intensity (ln)” value was 9.67.
In the case of “AAAAAACAATTTGTGTGTACACATGATACGTTCGAT [XGTACX_site4112]”, the “gcPBM binding intensity (ln)” value is reported as 10.1.
For “ATATATATTTTTAATTGTACAGAATTAAAAATATTG [XGTACX_site1967]”, the “gcPBM binding intensity (ln)” value was 9.43.
For “CTTTAACCATATATGTGTACGTATTTTATTCATATT [XGTACX_site6212]”, the “gcPBM binding intensity (ln)” value was 9.99.
For “AAAAAAAAAAAAAGCTGTACAATTAAAGACAAACCT [XGTACX_site8610]”, the “gcPBM binding intensity (ln)” value was 9.78.
“GGAAAAATATAATATGCATGTTATTATTTTTTTATA [TGCATGCA_site836]” was tested, and the “gcPBM binding intensity (ln)” value was 9.54.
In the case of “TTTTTATTTATTCTCTTTGTATTATAAAATAAAAGC [XGTACX_negctrl_site253]”, the “gcPBM binding intensity (ln)” value is reported as 9.2.
“ATATATATATAATGTTGTACATAAATATTATATTTA [XGTACX_site5225]” was tested, and the “gcPBM binding intensity (ln)” value was 9.38.
With ACATGTGAATTTTAGGTGCACTTGTAATTTAACATT the “gcPBM binding intensity (ln)” value was 9.83.
For “ATATATATATTATATAGTACAGAGTATACTATTATA [XGTACX_site1893]”, the “gcPBM binding intensity (ln)” value was 9.71.
With “CAAAAAGGAATGTATGCACACAATTGATTTTAACTC [CACACA_site1468]” the “gcPBM binding intensity (ln)” value was 10.2.
“AACGATATATGTACTACACACATTATGTCATCCTAT [CACACA_site2464]” was tested, and the “gcPBM binding intensity (ln)” value was 10.2.
“GATCTAAAAACAAGGTGTACAAGAAAAAAAAAAAAA [XGTACX_site7577]” was tested, and the “gcPBM binding intensity (ln)” value was 9.58.
In the case of “ACAAAAGGGGAATACACACACATATATATATATATA [CACACA_site2215]”, the “gcPBM binding intensity (ln)” value is reported as 10.1.
In the case of “TATGTATATACATAAACATGCAAAAACAATATCTTA [TGCATGCA_site950]”, the “gcPBM binding intensity (ln)” value is reported as 9.66.
“TATTTATTTATTTAATGTACAAAAGAACAAGAATTT [XGTACX_site2248]” was tested, and the “gcPBM binding intensity (ln)” value was 9.14.
“TTCTTCTGTTTTATTACACACCATTTTGTGTATACA [CACACA_site7059]” was tested, and the “gcPBM binding intensity (ln)” value was 10.
In the case of “TCTTAATCGTATTATTACTATAATTATATAATATTT [CACACA_negctrl_site1594]”, the “gcPBM binding intensity (ln)” value is reported as 9.68.
“TTCTTTTATGATAATTGTACCCTTTTTAAAAAGAAA [XGTACX_site7815]” was tested, and the “gcPBM binding intensity (ln)” value was 9.26.
For “ATAATGAAAAGAAAGGGTACAAAAAAAAAAAAAAAT [XGTACX_site3350]”, the “gcPBM binding intensity (ln)” value was 10.1.
For “AACTGATTATTTTTTTGTACATATATAATAATATAT [XGTACX_site5953]”, the “gcPBM binding intensity (ln)” value was 9.78.
“CATAAATAATATATTTGTACGAATAAAATTTGTTCA [XGTACX_site3445]” was tested, and the “gcPBM binding intensity (ln)” value was 9.48.
For “TAAAACAATATAAAATGTACAGAATTTTTTTTTCTT [XGTACX_site6820]”, the “gcPBM binding intensity (ln)” value was 9.52.
In the case of “TTTTTTTTCAATGGCACACATTTTAGATTTATGCTT [CACACA_site4735]”, the “gcPBM binding intensity (ln)” value is reported as 9.77.
In the case of “ATAAAATATCAATACCGTACACAAGCAGGTAAAATA [XGTACX_site3719]”, the “gcPBM binding intensity (ln)” value is reported as 9.92.
With “CTTTTTTGTAATAACACACACACAAACAGAAAAAAT [CACACA_site2075]” the “gcPBM binding intensity (ln)” value was 10.1.
For “ATTAATATTTAGACTTGTACATATATAATATATGTC [XGTACX_site3766]”, the “gcPBM binding intensity (ln)” value was 9.6.
In the case of “AAGAAAAAGATGCGCATACACACAGATGAATAACAA [CACACA_site1627]”, the “gcPBM binding intensity (ln)” value is reported as 10.2.
For “TTTCTTTTTTAAATTAAAATTTTTTTTTTTTTCGGT [TGCATGCA_negctrl_site52]”, the “gcPBM binding intensity (ln)” value was 9.36.
In the case of “TTATTTCAAAGTTGTTGTACAAAAATATATTTATAA [XGTACX_site5226]”, the “gcPBM binding intensity (ln)” value is reported as 9.65.
For “AAAAAAATAATGTACACACACATATATGTTTATATA [CACACA_site6234]”, the “gcPBM binding intensity (ln)” value was 10.1.
In the case of “AATTAAAAAGTTTTTAATGTTTTTAATTTTTTCCAC [XGTACX_negctrl_site423]”, the “gcPBM binding intensity (ln)” value is reported as 9.4.
For “AAAGGTGTATTTAATACACACGTGTCATTAAAATTG [CACACA_site4508]”, the “gcPBM binding intensity (ln)” value was 9.71.
With “TATATAAATTATGTGAGTACATAATTTAGAAGGAAC [XGTACX_site2807]” the “gcPBM binding intensity (ln)” value was 9.9.
In the case of “AATATAAATATAAATTGTACTTAAAAATTTCACGCA [XGTACX_site5234]”, the “gcPBM binding intensity (ln)” value is reported as 9.58.
In the case of “TTAAAAAACTATAATACACACCAAAAATATGCACAT [CACACA_site7079]”, the “gcPBM binding intensity (ln)” value is reported as 10.2.
“TCCTTTTGAACCCTTTTTCTCACAAGACCTTTATAT [TGCATGCA_negctrl_site413]” was tested, and the “gcPBM binding intensity (ln)” value was 9.64.
